7 substances from paper PMC5833833 can be followed below.

Sequences of proteins named here, by UniProt entry; tags and fusion partners are left off. A change or cut given only in a name is not applied to a line headed by its entry. A line that says so, or that is headed by a name, gives the form on record, which may keep a tag or linker.
UniProt Q13546: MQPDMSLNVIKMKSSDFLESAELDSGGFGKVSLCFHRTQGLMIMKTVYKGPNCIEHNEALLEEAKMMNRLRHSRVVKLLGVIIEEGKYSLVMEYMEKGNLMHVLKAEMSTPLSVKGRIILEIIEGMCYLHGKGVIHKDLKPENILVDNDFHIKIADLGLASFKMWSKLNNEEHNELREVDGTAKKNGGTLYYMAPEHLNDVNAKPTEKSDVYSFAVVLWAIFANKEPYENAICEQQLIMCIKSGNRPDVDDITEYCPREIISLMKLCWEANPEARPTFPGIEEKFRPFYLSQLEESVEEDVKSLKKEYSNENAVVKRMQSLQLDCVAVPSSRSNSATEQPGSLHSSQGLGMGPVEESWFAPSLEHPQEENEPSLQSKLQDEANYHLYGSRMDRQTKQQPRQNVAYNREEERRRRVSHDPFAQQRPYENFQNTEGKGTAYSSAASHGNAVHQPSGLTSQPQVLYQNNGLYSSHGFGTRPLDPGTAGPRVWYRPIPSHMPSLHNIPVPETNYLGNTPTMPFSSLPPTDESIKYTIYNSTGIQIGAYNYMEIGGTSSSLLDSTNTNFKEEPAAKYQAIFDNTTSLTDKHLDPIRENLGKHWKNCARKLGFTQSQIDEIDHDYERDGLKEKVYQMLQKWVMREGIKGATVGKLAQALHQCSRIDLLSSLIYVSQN
RIPK1 (mutRHIM), the RHIM mutant RIPK1 with AAAA substitutions in IQIG(539-542), Myc-tagged (Q13546, form named): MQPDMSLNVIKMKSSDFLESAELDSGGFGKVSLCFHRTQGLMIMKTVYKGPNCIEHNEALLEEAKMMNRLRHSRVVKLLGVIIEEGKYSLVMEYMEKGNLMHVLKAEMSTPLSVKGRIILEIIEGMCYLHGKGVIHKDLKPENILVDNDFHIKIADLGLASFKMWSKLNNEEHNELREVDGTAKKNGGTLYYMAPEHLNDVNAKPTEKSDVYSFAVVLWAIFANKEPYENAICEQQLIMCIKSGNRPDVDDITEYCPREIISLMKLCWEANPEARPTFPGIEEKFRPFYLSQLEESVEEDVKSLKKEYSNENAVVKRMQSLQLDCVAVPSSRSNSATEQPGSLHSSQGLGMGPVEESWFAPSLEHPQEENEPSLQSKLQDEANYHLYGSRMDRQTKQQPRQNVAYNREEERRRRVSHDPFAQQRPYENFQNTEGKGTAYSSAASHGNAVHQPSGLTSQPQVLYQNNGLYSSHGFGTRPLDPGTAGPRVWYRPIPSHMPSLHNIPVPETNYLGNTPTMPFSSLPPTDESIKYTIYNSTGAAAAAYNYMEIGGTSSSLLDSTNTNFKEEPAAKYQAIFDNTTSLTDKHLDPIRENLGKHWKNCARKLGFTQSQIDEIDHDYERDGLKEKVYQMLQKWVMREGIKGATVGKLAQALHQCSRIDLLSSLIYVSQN
UniProt Q9Y572: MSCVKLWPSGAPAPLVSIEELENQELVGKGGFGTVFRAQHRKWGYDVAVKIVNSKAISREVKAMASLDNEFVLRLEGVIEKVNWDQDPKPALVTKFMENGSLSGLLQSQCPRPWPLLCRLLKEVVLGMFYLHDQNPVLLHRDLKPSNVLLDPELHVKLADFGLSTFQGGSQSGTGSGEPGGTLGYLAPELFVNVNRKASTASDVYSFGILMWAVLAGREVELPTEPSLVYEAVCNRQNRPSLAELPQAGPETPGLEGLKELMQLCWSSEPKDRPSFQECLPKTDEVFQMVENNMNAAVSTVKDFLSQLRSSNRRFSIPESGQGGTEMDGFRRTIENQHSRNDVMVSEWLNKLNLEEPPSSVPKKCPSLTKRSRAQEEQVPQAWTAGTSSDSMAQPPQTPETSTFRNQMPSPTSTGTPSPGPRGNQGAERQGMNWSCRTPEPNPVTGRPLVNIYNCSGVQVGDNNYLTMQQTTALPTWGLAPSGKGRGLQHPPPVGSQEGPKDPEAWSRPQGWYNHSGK
RIPK3 (mutRHIM), the RHIM mutant RIPK3 with AAAA substitutions in VQVG(458-461), Myc-tagged (Q9Y572, form named): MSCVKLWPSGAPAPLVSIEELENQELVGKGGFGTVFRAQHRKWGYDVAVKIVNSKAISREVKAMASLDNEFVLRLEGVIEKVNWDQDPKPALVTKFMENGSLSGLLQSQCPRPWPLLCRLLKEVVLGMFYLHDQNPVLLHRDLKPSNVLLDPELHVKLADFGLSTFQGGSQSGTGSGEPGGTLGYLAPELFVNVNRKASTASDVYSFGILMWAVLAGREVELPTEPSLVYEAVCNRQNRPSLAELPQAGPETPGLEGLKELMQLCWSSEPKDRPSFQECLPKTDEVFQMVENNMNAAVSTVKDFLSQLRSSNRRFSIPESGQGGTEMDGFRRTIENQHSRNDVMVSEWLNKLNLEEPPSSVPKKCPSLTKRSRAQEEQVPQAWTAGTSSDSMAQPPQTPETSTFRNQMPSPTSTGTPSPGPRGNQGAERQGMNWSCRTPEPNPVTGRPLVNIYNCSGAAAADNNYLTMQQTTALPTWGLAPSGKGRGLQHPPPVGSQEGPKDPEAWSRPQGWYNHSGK
UniProt P03230: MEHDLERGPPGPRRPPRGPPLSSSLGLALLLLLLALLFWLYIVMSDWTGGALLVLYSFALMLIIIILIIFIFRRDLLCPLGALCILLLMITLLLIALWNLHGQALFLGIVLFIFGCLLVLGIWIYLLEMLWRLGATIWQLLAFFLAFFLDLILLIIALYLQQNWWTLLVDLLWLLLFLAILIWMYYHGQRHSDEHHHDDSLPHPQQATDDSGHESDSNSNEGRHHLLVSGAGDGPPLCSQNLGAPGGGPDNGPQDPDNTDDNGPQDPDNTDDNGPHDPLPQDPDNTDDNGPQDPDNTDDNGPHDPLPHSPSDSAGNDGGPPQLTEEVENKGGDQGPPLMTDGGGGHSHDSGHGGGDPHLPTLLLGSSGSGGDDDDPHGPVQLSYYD
UniProt P03182: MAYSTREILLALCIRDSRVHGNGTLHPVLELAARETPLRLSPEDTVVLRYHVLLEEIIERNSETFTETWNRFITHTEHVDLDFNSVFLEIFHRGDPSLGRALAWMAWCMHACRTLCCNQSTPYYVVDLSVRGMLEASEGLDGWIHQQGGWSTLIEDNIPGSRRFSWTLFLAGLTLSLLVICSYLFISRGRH

For experiment [1], the target named is Myc-RIPK1 (receptor-interacting protein kinase 1) (UniProt Q13546). Kind of experiment: co-IP.
Experiment [2] addresses Flag-RIPK3 (receptor-interacting protein kinase 3) (UniProt Q9Y572). Kind of experiment: co-IP.
Experiment [3] has as its target Myc-RIPK1 (receptor-interacting protein kinase 1) (UniProt Q13546). Description: proximity ligation.
Experiment [4] concerns the target Myc-RIPK3 (full-length RIPK3 in GV219 vector) (UniProt Q9Y572). Description: proximity ligation.
In experiment [5] the target is RIPK3 (mutRHIM), the RHIM mutant RIPK3 with AAAA substitutions in VQVG(458-461), Myc-tagged (UniProt Q9Y572). Description: proximity ligation.
The target in experiment [6] is RIPK1 (mutRHIM), the RHIM mutant RIPK1 with AAAA substitutions in IQIG(539-542), Myc-tagged (UniProt Q13546). Kind of experiment: proximity ligation.
Experiment [7] has as its target RIPK3 (mutRHIM), the RHIM mutant RIPK3 with AAAA substitutions in VQVG(458-461), Myc-tagged (UniProt Q9Y572). Description: co-IP.
In experiment [8] the target is RIPK1 (mutRHIM), the RHIM mutant RIPK1 with AAAA substitutions in IQIG(539-542), Myc-tagged (UniProt Q13546). Description: co-IP.
Experiment [9] addresses endogenous RIPK3 (human (endogenous in NP460hTERT, NP460hTERT-EBV, CNE1, CNE1-LMP1)) (UniProt Q9Y572). Kind of experiment: proximity ligation.
In experiment [10] the target is endogenous RIPK1 (human (endogenous in NP460hTERT, NP460hTERT-EBV, CNE1, CNE1-LMP1)) (UniProt Q13546). Kind of experiment: proximity ligation.
Experiment [11] addresses endogenous RIPK3 (human (endogenous in NP460hTERT, NP460hTERT-EBV, CNE1, CNE1-LMP1)) (UniProt Q9Y572). Description: co-IP.
Experiment [12] deals with endogenous RIPK1 (human (endogenous in NP460hTERT, NP460hTERT-EBV, CNE1, CNE1-LMP1)) (UniProt Q13546). Kind of experiment: co-IP.

No constants are given. Whether binding was seen depends on the method and setting. Binding seen in cells or lysates may run through a third protein. Some binding calls cover weakened binding; strength is not graded here.

With “Epstein-Barr virus encoded latent membrane protein 1 (LMP1), expressed from pSG5-LMP1 (from UniProt P03230)”, the binding entry in [1] and in experiment [2] was “binds” throughout.

Consider “Flag-BHRF1 (EBV early lytic cycle protein BHRF1) (from UniProt P03182 1-191)”, for which the binding entry in experiment [3] and in experiment [4] was “no binding” throughout.

In the case of “Flag-LMP1 (full-length LMP1 in GV141 vector) (from UniProt P03230)”, the binding entry in experiment [5], in [6], in experiment [3], in experiment [4], in [7] and in experiment [8] was “binds” each time.

“LMP1 expressed by EBV in NP460hTERT-EBV cells (from UniProt P03230)”: the binding result in experiment [9] and in experiment [10] was “binds” throughout.

As to “LMP1 in LMP1-overexpressing nasopharyngeal carcinoma cells (CNE1-LMP1) (from UniProt P03230)”, the binding result in experiment [11] and in experiment [12] was “binds” throughout.

With “Myc-RIPK1 (receptor-interacting protein kinase 1) (from UniProt Q13546 1-671)”, the binding entry in experiment [2] is reported as “binds”.

Consider “endogenous RIPK1 (from UniProt Q13546 1-671)”, for which the binding entry in experiment [9] and in experiment [11] was “binds” in each case.
